Results published in PubChem BioAssay AID1508642 (National Center for Advancing Translational Sciences (NCATS), 2021).
Screen size: about 43,000 compounds; about 200 (0.47%) were called active. Roughly 12% stayed inconclusive and do not appear here. Calls follow the shape of the dose curve; as a rule, active = well fitted cell-killing curve with a large enough effect; inconclusive = small, poorly fitted or top-dose-only effect, or effect the other way; inactive = flat fitted curve, though single readings scatter. Some of the results follow.

experiment: Cell viability qHTS assay in S16 Pmp22-F2sN cells; conditions: S16 Pmp22-F2sN Schwann cells viability, CellTiter-Glo, 24 h; series mostly up to 57.5 µM; activity change, negative = cytotoxicity: at the top concentration; also: nearly all actives have a fitted effect of over 65% in size
Method in brief: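 S16 Pmp22-F2sN Schwann cells (500-1,000/well) in phenol-red-free DMEM with 10% FBS received 23 nL compound by pin tool for 24 h at 37 °C. Viability was then read as CellTiter-Glo luminescence after 15 min at room temperature.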
% is scaled to controls: 0 for no effect and ±100 for the full control effect.

Compound	activity change, negative = cytotoxicity
CCOC(=O)c1c(C)oc2ccc(N(C(=O)Oc3ccccc3)S(=O)(=O)c3ccccc3)cc12	inactive: 2.55%
CCOc1ccc(/C=C(\C#N)c2nc(-c3cc4ccccc4oc3=O)cs2)c(OCC)c1	inactive: 6.06%
CCN1CCN(C(c2ccc(OC)cc2)c2c(O)cc(C)n(CCOC)c2=O)CC1 (configuration not stated)	inactive: -2.87%
Cc1cc(C)cc(NC(=O)CSc2nccn2-c2ccccc2)c1	inactive: -1.31%
Cc1cc(Br)ccc1NC(=O)c1cc2c(=O)n(C)c3cc(Cl)ccc3c2s1	inactive: 14.4%
O=C(NC1CC(=O)N(c2ccccc2)C1)C1CCCCC1 (configuration not stated)	inactive: -3.28%
Cc1cccc(NC(=O)C2CCN(S(=O)(=O)c3cccc4nsnc34)CC2)c1C	inactive: 26.1%
COc1ccc(NC(=O)C2=C(C)Nc3nc(SCc4ccccc4C)nn3C2c2ccc(Br)cc2)cc1 (configuration not stated)	inactive: -5.08%
Cc1ccc2c(c1)sc1nc(=O)n(-c3ccc(Cl)cc3)c(=O)n12	inactive: 12.6%
Cc1ccc(-c2cc(N)n3nc(-c4ccc(C)cc4)cc3n2)cc1	inactive: -4%
CCOC(=O)c1noc2ncnc(Nc3ccc(C)c(F)c3)c12	inactive: 12%
CC(=O)c1ccc(N2CCN(c3nc4c(S(=O)(=O)c5ccccc5)nnn4c4ccc(Cl)cc34)CC2)cc1	inactive: -1.89%
Cc1c(-c2nsc(NC(=O)c3ccc(Cl)cc3)n2)nnn1-c1ccc(C(C)C)cc1	inactive: -1.85%
CC(CC(=O)NCc1ccc(Cl)cc1)CC1=NS(=O)(=O)c2ccccc2N1 (configuration not stated)	inactive: 5.26%
O=C(Cn1cc(SCc2ccc(C(F)(F)F)cc2)c2ccccc21)N1CCCCC1	inactive: -5.04%
COc1ccc2c(CNCc3ccc(Cl)cc3)c(C(=O)O)n(Cc3ccccc3C)c2c1	inactive: -5.72%
CCc1cccc2c(-c3ccccc3)nc(SCC(=O)Nc3ccccc3)nc12	inactive: 4.37%
COc1ccc(N2CCN(CCCNC(=O)C3COc4ccc(OC)cc4C3)CC2)cc1 (configuration not stated)	inactive: -17.4%
COc1ccc(-c2cc(C)no2)cc1S(=O)(=O)NCc1ccc(OC(C)C)cc1	inactive: -0.394%
CCC(=O)N1c2ccccc2CC1C(=O)NCCc1ccc(SC)cc1 (configuration not stated)	inactive: 15.1%
Cc1ccccc1OCCn1cc(C(=O)C2CCCCC2)c2ccccc21	inactive: 0.18%
CCOC(=O)Cn1c(C2CC(=O)N(c3ccc(C)cc3)C2)nc2ccccc21 (configuration not stated)	inactive: 9.81%
Cc1ccc(C)c(N2CCN(C(=O)Cn3cnc4sc(C)c(S(=O)(=O)N5CCN(c6ncccn6)CC5)c4c3=O)CC2)c1	inactive: -28.4%
O=[N+]([O-])c1ccc(C(c2sc3nc(-c4ccco4)nn3c2O)N2CCN(Cc3ccccc3)CC2)cc1 (configuration not stated)	inactive: 7.28%
O=C(Nc1ccc(OCc2cc(=O)n3ccsc3n2)cc1)c1ccc(F)cc1	inactive: 7.4%

Compound	activity change, negative = cytotoxicity
Cc1nnc(N2CCC(C(=O)NCCc3ccccc3)CC2)c2nn(-c3ccccc3)c(C)c12	inactive: 0.725%
COc1ccc(CNC(=O)CSCc2nc(-c3ccccc3F)oc2C)cc1	inactive: -6.22%
CCc1ccc(-c2nc(CN3CCC(C(=O)NCCc4ccc(C)cc4)CC3)c(C)o2)cc1	inactive: 21%
Cc1cccc(N(CC(=O)NCc2ccccc2)S(C)(=O)=O)c1C	inactive: -2.34%
Cc1ccc(C)c(NC(=O)Cn2cnc3c(oc4ccccc43)c2=O)c1	inactive: 0.897%
COc1ccc(NC(=O)C(c2ccccc2)N2Cc3ccccc3C2=O)cc1 (configuration not stated)	inactive: 0.799%
Cc1cc(C)c2c(=O)cc(C(=O)Nc3ccc(C)c(Cl)c3)oc2c1	inactive: 0.0088%
COc1ccc(-c2cc(OC(=O)c3ccccc3C)c3c(C)oc(C)c3c(=O)c2)cc1	inactive: 3.31%
CCOC(=O)c1c(C)oc2nc(C)nc(Nc3cc(C)cc(C)c3)c12	inactive: 1.77%
CC(=O)N1CCCc2cc(S(=O)(=O)N(CCN(C)C)Cc3ccccc3)ccc21	inactive: 6.89%
CCc1ccc2oc(C(=O)NCC(c3ccc(Cl)cc3)N3CCOCC3)c(C)c2c1 (configuration not stated)	inactive: -13.1%
Cc1csc2nc(COC(=O)c3ccc(F)cc3)cc(=O)n12	inactive: -13.9%
O=C(CSc1nc2ccccc2n1Cc1ccc(F)cc1)N1CCN(c2ccc(F)cc2)CC1	inactive: 4.76%
Cc1ccc(C)c(NC(=O)CSc2nnc(CNC(=O)c3ccccc3)n2-c2ccccc2)c1	inactive: 17.5%
CCOc1ccc(NC(=O)c2ccc(CN3C(=O)C(C)=C(c4ccc(C)cc4)S3(=O)=O)cc2)cc1	inactive: 0.536%
CC(=O)Nc1ccc(NC(=O)CCc2c(C)nc3c(c(C)nn3-c3ccc(C)cc3)c2C)cc1	inactive: 3.21%
CC(=O)Nc1ccccc1-c1nc2ccccc2n(C(C)C(=O)Nc2cc(Cl)ccc2C)c1=O (configuration not stated)	inactive: -5.36%
CCN(CC)S(=O)(=O)c1nnc(NC(=O)COc2ccc(C)cc2)s1	inactive: -1.36%
O=C(Nc1ccccc1Cl)c1ccc(F)c(S(=O)(=O)NCc2ccc(Cl)c(Cl)c2)c1	inactive: -2.35%
CCOC(=O)c1sc(N2C(=O)c3oc4cc(C)c(C)cc4c(=O)c3C2c2ccc(C)cc2)nc1C (configuration not stated)	inactive: -7.52%
COc1ccc(CN2CCCN(CC(=O)Nc3cc(C)ccc3C)S2(=O)=O)cc1	inactive: -12.5%
CCC(=O)Nc1ccccc1-c1nc2ccccc2n(Cc2cccc(Br)c2)c1=O	inactive: -2.86%
Cn1c(=O)c2sccc2n2c(CCCC(=O)Nc3ccc(Cl)cc3)nnc12	inactive: 3.56%
COc1cc(OC)c(NC(=O)c2sc3nc4n(c(=O)c3c2C)CCCC4)cc1Cl	inactive: -2.32%
COc1ccc(S(=O)(=O)NCCc2sc(C)nc2C)cc1	inactive: 2.55%

Compound	activity change, negative = cytotoxicity
CCCOc1cccc(C(=O)Nc2cc(-c3nc4ccccc4[nH]3)ccc2C)c1	inactive: -23.5%
CCn1c(CNC(=O)C23CC4CC(CC(C4)C2)C3)nnc1SCC(=O)Nc1ccc(C)cc1	inactive: 0.794%
Cc1nc2c3cccnc3nn2c(C)c1CCC(=O)NCc1ccccc1Cl	inactive: 18.1%
Cc1ccc(S(=O)Cc2ccc(C(=O)NCc3ccc(OC(C)C)cc3)o2)cc1 (configuration not stated)	inactive: -9.74%
CCOc1ccccc1NC(=O)CSc1nc2ccccc2nc1Cc1ccc(C)cc1	inactive: 24.3%
Cc1ccc2c(Sc3ccccc3)c(C(=O)NCc3ccccc3F)[nH]c2c1	inactive: 5.01%
CC(=O)c1ccc(NC(=O)c2sc(-n3nc(C)c(CCC(C)C)c3C)nc2C)cc1	inactive: -3.66%
CCOc1cc(Cn2c(-c3ccc(O)c(OCC)c3)nc3ccccc32)ccc1O	inactive: -10.2%
O=C(CC1C(=O)OCCN1Cc1ccccc1)Nc1cccc(Cl)c1 (configuration not stated)	inactive: -0.578%
Cc1ccc(CCNC(=O)CN2C(=O)COc3ccc(S(=O)(=O)N4CCCC4)cc32)cc1	inactive: 6.36%
CCCCC(=O)N1CC(=O)Nc2ccc(F)cc2C1c1ccc(F)cc1 (configuration not stated)	inactive: -0.011%
CCc1ccc(OCC(=O)Nc2ccc(S(=O)(=O)Nc3onc(C)c3C)cc2)cc1	inactive: 2.79%
COc1ccc(OC2CCN(S(=O)(=O)c3cccc(F)c3)CC2)cc1	inactive: -2.71%
Cc1ccc2oc(=O)n(CCNC(=O)Nc3ccccc3C)c2c1	inactive: -18.5%
Cc1ccc(CNC(=O)Cc2c(C(=O)O)c(C)cn2C)cc1	inactive: 4%
CCCCn1c(=O)c2oc3ccccc3c2n(CC(=O)Nc2cc(C)ccc2C)c1=O	inactive: -0.216%
COc1cc(OC)c(NC(=O)Cc2c(C(=O)O)c(C)cn2C)cc1Cl	inactive: -2.34%
COc1ccc(NC(=O)C2=C(C)Nc3ncnn3C2c2sccc2C)cc1 (configuration not stated)	inactive: 4.32%
CC(=O)N1CCCC1c1nc2ccccc2n1Cc1c(F)cccc1Cl (configuration not stated)	inactive: 24.6%
COc1ccc(C2C(C(=O)Nc3ccccc3)=C(C)Nc3nc(-c4ccccc4)nn32)c(OC)c1 (configuration not stated)	inactive: 0.222%
Cc1ccccc1NC(=O)Nc1csc2c1CCCC2	inactive: -18.8%
CCOc1ccc(CN2C(=O)c3ccccc3Sc3ccc(C(=O)NCc4ccc5c(c4)OCO5)cc32)cc1	inactive: 7.69%
COc1ccc(C)cc1NC(=O)C(NS(=O)(=O)c1cccs1)c1ccccc1 (configuration not stated)	inactive: 0.946%
Cc1cccc(C(=O)N2CCNC(=O)C2CC(=O)Nc2ccc(F)cc2)c1 (configuration not stated)	inactive: 1.04%
CCOc1ccc(CCNC(=O)C(CC)n2nc(C)c3c(C)n(-c4ccccc4)nc3c2=O)cc1 (configuration not stated)	inactive: -25.3%

Compound	activity change, negative = cytotoxicity
Cc1cccc(N2CCN(C(=O)c3sc4nc5n(c(=O)c4c3C)CCC5)CC2C)c1 (configuration not stated)	inactive: 4.02%
COc1ccc(-c2c(C#N)c(SCC(=O)Nc3ccc(C)c(C)c3)nc(C)c2C(=O)Nc2ccc(Cl)cc2)cc1	inactive: -1.36%
O=C(NC1CCCC1)c1ccc(CSc2nc3cccnc3n2Cc2cccc(F)c2)cc1	inactive: -10.9%
O=c1[nH]c(SCc2ccccc2)nc2c1CCCC2	inactive: -11.6%
O=C(CSc1nnc(-c2ccccc2Br)n1-c1ccccc1)c1ccc(F)cc1	inactive: -1.1%
Cc1nc2ccn(Cc3cccnc3)c(=O)c2cc1C(=O)NCc1ccccc1	inactive: 4.16%
Cc1oc(-c2ccccc2Cl)nc1CS(=O)CC(=O)N1CCN(c2cccc(C(F)(F)F)c2)CC1 (configuration not stated)	inactive: -28.4%
Cc1nc2sccn2c(=O)c1S(=O)(=O)Nc1ccc(N2CCN(C)CC2)cc1	inactive: 14.3%
CCC(=O)N1CCc2cc(CNS(=O)(=O)c3ccccc3F)ccc21	inactive: 5.13%
Cc1cc(C)cc(NS(=O)(=O)c2ccc3[nH]cc(C(=O)N4CCCCC4)c(=O)c3c2)c1	inactive: -7.49%
Cc1ccc(-n2c(=O)c3oc4ccccc4c3n(Cc3ccccc3)c2=O)cc1C	inactive: 5.32%
Cc1ccc(-c2noc(-c3nnn(CC(=O)Nc4ccc(C)cc4Cl)c3N)n2)cc1	inactive: 1.38%
Cc1cccc(OCC(=O)Nc2nnc(S(=O)(=O)N3CCCCCC3)s2)c1	inactive: 1.27%
Cc1ccc(-n2nc(C(=O)NC(C)C)c(=O)n(C)c2=O)cc1	inactive: -0.649%
CCOc1ccccc1CNC(=O)c1ccc2c(c1)N(CC)CCS2	inactive: -3.7%
COc1cccc(CNC(=O)C(Cc2ccccc2)NS(=O)(=O)c2ccc3c(c2)CCN3C(C)=O)c1 (configuration not stated)	inactive: -18.6%
CCOc1cc2c(cc1OCC)C(CC(=O)OC)N(C(=O)Nc1cc(C)cc(C)c1)CC2 (configuration not stated)	inactive: 6.72%
Cc1ccc(NC(=O)CCc2nc(-c3ccccc3F)no2)c(C)c1	inactive: 0.417%
O=C1CCCc2cc(S(=O)(=O)N3CCCC(C(=O)NCc4ccccc4Cl)C3)ccc2N1 (configuration not stated)	inactive: -2.82%
Cc1noc(-c2ccc(N3CCCCC3C)c([N+](=O)[O-])c2)n1 (configuration not stated)	inactive: -8.94%
COc1cc(Cl)c(C)cc1NC(=O)c1c(C)oc2nc(C)nc(N3CCCC3)c12	inactive: -2.33%
Cc1ccc(C)c(N2CCN(C(=O)CCc3c(C)nc4c(c3C)c(=O)n(C)c(=O)n4C)CC2)c1	inactive: 7.59%
